“And” between values parts separate entries of the source, which are not always exact repeats. Equal values may be shown once. Hit rate of the full screen: of about 16,000 compounds, about 40 (0.2%) were called active. Not shown: some 1% with an inconclusive outcome. Calls follow the shape of the dose curve; as a rule, active = well fitted activation curve with a large enough effect; inconclusive = small, poorly fitted or top-dose-only effect, or another doubt; inactive = no such curve, though single readings can be large or run the other way. Some of the results follow.
% is scaled to controls: 0 for no effect and ±100 for the full control effect.

Sequence of UniProt Q8WZA2 (Q8WZA2 whole entry, looked up): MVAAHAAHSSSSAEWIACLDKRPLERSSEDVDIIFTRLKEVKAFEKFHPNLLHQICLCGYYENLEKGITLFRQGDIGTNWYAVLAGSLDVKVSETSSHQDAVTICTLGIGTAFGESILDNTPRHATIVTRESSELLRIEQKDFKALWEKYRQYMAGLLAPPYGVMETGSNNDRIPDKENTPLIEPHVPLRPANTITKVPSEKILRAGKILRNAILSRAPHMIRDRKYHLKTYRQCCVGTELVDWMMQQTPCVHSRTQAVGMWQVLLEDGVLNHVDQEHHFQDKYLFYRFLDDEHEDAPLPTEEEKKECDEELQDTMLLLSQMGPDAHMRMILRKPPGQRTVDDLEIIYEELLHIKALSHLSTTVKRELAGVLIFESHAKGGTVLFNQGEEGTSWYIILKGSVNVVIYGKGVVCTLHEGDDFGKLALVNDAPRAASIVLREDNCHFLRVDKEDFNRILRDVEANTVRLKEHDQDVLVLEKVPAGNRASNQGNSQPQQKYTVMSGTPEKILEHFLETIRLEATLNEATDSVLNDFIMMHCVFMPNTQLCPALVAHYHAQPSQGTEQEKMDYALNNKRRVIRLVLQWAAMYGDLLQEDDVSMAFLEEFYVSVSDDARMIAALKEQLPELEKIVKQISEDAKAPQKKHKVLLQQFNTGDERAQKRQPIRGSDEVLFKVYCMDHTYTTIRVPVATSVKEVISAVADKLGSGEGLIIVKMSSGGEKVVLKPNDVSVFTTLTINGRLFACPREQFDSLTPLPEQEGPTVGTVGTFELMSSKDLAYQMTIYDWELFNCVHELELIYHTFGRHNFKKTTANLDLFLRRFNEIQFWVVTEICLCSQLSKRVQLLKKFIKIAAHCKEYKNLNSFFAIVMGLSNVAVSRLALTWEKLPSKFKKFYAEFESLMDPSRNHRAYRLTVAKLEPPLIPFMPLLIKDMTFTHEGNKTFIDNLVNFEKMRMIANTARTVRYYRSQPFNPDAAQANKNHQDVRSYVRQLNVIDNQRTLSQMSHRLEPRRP

The assay concerns the target Rap guanine nucleotide exchange factor 4 (Homo sapiens) (UniProt Q8WZA2). Nature of the assay: Validation qHTS for agonist of cAMP-regulated guanine nucleotide exchange factor 4 (EPAC2).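 Also: exchange makes BODIPY-GDP fluorescence drop when released from Rap1B; series mostly up to about 150 µM.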 The note with it: EPAC2 Rap1B BODIPY-GDP exchange, fluorescence; activation: stronger effect = higher value. In a few lines:
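Signal normalized against 6.5 mM cAMP as agonist control. Mix of EPAC2 (100 nM), RAP1B-BODIPY-GDP (250 nM) and GDP (50 uM) was read kinetically at 480/540 nm, every 5 min over 30 min, after 5 min room-temperature incubation with compound.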
On the technique in general: Quantitative high-throughput screening tests each substance at several concentrations.
Consider `C=C(CO)C1Cc2c(ccc3c(=O)c4c(oc23)COc2cc(OC)c(OC)cc2-4)O1` (stereo not given), for which the activation is inactive: -11.1%. The same measure for `CCN(CC)CCNC(=O)COc1ccc(Cl)cc1`: inactive: 0.364%. To `O=C(c1cnccn1)N1CCC[C@@]2(CCN(c3ccncc3)C2)C1` belongs inactive: 5.81%; to `CCCCC(CC)CN=C(N)NC(N)=NCCCCCCN=C(N)NC(N)=NCC(CC)CCCC` (stereo not given), inactive: -34%. For `Cc1ccnc2ccc([N+](=O)[O-])cc12`, the activation is inactive: -8.33%. As for `CC(C)C(O)c1ccc2c(c1)CN(C(=O)c1ccccc1-n1cccn1)CCO2` (stereo not given), the activation was inactive: 0.274%. The same measure for `COC(=O)C1CCN(Cc2ccc3c(c2)CN(C(=O)c2cc(C4CC4)on2)CCO3)CC1`: inactive: 5.71%. In the case of `C=C1CC[C@H](O)CC1=C/C=C1\CCC[C@]2(C)[C@@H]([C@H](C)CC[C@@H](O)C(C)(C)O)CC[C@@H]12`, the activation was inactive: -0.281%.

As for `COCCn1c(=O)c(-c2ccc(Cl)cc2)nc2cnc(OC)nc21`, the activation is inactive: 16.3%. The same measure for `FC(F)(F)c1ccccc1-c1cc(NCc2cccnc2)ncn1`: inactive: -3.9%. With `Cn1cc(C(F)(F)F)nc1-c1ccc(OCC(O)CNCCOc2ccc(O)c(C(N)=O)c2)cc1` (stereo not given), the activation is inactive: -4.99% and inactive: -23.7%. To `CN1CCN2c3ncccc3Cc3ccccc3C2C1` (stereo not given) belongs inactive: -15.3% and inactive: 5.53%. As to `COc1ccccc1CN1CCC2(CC1)CCN(C(=O)c1ccncc1)CC2`, the activation is inactive: -11.4%. For `CS(=O)(=O)Nc1cccc(-c2ccc3ncnc(NC4CCNCC4)c3c2)c1`, the activation was inactive: -4.57%.

For `CN1CCC(=O)N([C@H](COc2ccccc2)Cc2ccccc2)CC1`, the activation is inactive: -12.4%. The same measure for `O=S(O)CO`: inactive: -1.41%; for `CO[C@H]1C=CO[C@@]2(C)Oc3c(C)c(O)c4c(O)c(c(C=NN5CCN(C)CC5)c(O)c4c3C2=O)NC(=O)C(C)=CC=C[C@H](C)[C@H](O)[C@@H](C)[C@@H](O)[C@@H](C)[C@H](OC(C)=O)[C@H]1C`: inactive: -9.42%; for `CC(C)C(=O)NCC1CCC2(CCN(Cc3ccc(-c4ccccc4Cl)o3)CC2)O1` (stereo not given): inactive: 4.03%. Take `COC(=O)CC1C(C)(C)C(=O)C2CC3=C4CC(=O)OC(c5ccoc5)[C@]4(C)CCC3[C@@]1(C)C2=O` (stereo not given in full): the activation is inactive: -11.6%.

As to `COc1cc(NS(=O)(=O)c2ccc(N)cc2)ncn1`, the activation was inactive: 4.94% and inactive: -16.4%. For the compound `CC(C)=CCc1c2c(c3occ(-c4ccc(O)c(O)c4)c(=O)c3c1O)C=CC(C)(C)O2`, the activation was inactive: -63.6%.

Turning to `O=C(c1cc(C(F)(F)F)cc(C(F)(F)F)c1)N1CCC[C@@]2(CCN(c3ncccn3)C2)C1`, the activation was inactive: -18.4%. Turning to `COc1ccccc1CCn1c(=O)c(-c2cc(F)cc(F)c2)nc2cncnc21`, the activation was inactive: -11.3%.

As for `N#CCCn1c(=O)c(-c2cccs2)nc2cnc(Nc3ccccc3)nc21`, the activation is inactive: -2.03%. The same measure for `Cc1cc(C)nc(NS(=O)(=O)c2ccc(N)cc2)n1`: inactive: -20% and inactive: -4.01%; for `CC1(C)S[C@@H]2C(C(=O)OCc3ccccc3)NC(=O)N2C1C(=O)OCc1ccccc1` (stereo not given in full): inactive: -9.09%; for `C/C=C(\C)C(=O)OC1[C@@H]2C=C3C4CC(=O)OC(c5ccoc5)[C@]4(C)CCC3[C@@](C)(C2=O)C(C(O)C(=O)OC)C1(C)C` (stereo not given in full): inactive: -6.19%. For the compound `O=c1cnc2cncnc2n1Cc1ccc(F)cc1`, the activation is inactive: 9.41%. As to `CN(C(=O)CN(CCO)CC(=O)N(C)C(C)(C)Cc1ccccc1)C(C)(C)Cc1ccccc1`, the activation is inactive: -15% and inactive: -17.7%.

Regarding `COC(=O)N/N=C/c1c[n+]([O-])c2ccccc2[n+]1[O-]`, the activation was inactive: -10.8%. To `COc1ccc2c(c1)CCc1cnc(-n3ncc(C(=O)NCc4cc(C)no4)c3C3CC3)nc1-2` belongs inactive: -6.76%; to `c1ccc2cc(C3=NCCN3)ncc2c1`, inactive: 1%; to `COCCn1c(=O)cnc2cnc(N3CCNCC3)nc21`, inactive: -2.89%. `O=C(c1csnn1)N1CCC[C@@]2(CCN(Cc3cc(C(F)(F)F)cc(C(F)(F)F)c3)C2)C1`: the activation is inactive: -27.9%.

As for `O=C(O)C1=CC(=C(c2ccc(O)c(C(=O)O)c2)c2ccc(O)c(C(=O)O)c2)C=CC1=O`, the activation was inactive: -31.3% and inactive: -33.8%. To `CCCCCCCCN1[C@@H](CC(=O)OC)c2cc(F)ccc2S1(=O)=O` belongs inactive: -13.8%; to `O=c1cc(-c2ccccc2)oc2ccccc12`, inactive: 13.2%. In the case of `COCc1c(C(=O)N2CCCCC2c2cccnc2)cnn1-c1ncc2c(n1)-c1ccccc1CCC2` (stereo not given), the activation was inactive: -15.6%. As for `Cc1ccc(OCC(O)C(C)NC(C)C)c2c1CCC2` (stereo not given), the activation was inactive: 7.97%.

On to `CN(C)c1ncc2nc(-c3cccc(C#N)c3)c(=O)n(C)c2n1`, for which the activation was inactive: -31.5%.

`CCCn1c(=O)c(C)cn2nc(N)nc12`: the activation is inactive: 0.784% and inactive: -37.7%.

For the compound `CC(C(O)c1ccc(O)cc1)N1CCC(Cc2ccccc2)CC1` (stereo not given), the activation was inactive: 24.4% and inactive: -16.1%.

On to `CN1CCN(c2ncc3nc(-c4ccccc4)c(=O)n(CCC#N)c3n2)CC1`, for which the activation was inactive: -25.8%. To `CN(Cc1ccccc1)Cc1ccccc1` belongs inactive: -8.8%. The same measure for `CCCCCCCCCCCCCCCC(=O)N[C@@H](COP(=O)(O)O)C(=O)O`: inactive: -9.78%; for `O=c1ccn([C@@H]2O[C@H](COP(=O)(O)OP(=O)(O)O)[C@@H](O)[C@H]2O)c(=O)[nH]1`: inactive: 4.39% and inactive: -4.82%; for `C[C@@H]1C/C=C/C=C/C=C/C=C/[C@H](O[C@@H]2O[C@H](C)[C@@H](O)[C@H](N)[C@@H]2O)C[C@@H]2O[C@](O)(C[C@@H](O)C[C@H]3O[C@@H]3/C=C/C(=O)O1)C[C@H](O)[C@H]2C(=O)O`: inactive: -5.35%. The same measure for `COc1ccc(SC[C@H](C)CN2CC[C@H](NC(=O)OCc3ccccc3)CCC2=O)cc1`: inactive: -12%; for `CN1CCN(c2nc(-c3ccc4c(c3)OCO4)nc3ccccc23)CC1`: inactive: -6.12%; for `CN(C)c1ncc2nc(CCc3ccccc3)c(=O)n(-c3ccccc3)c2n1`: inactive: 21.3%.

The record behind these values is PubChem BioAssay AID1645887 (National Center for Advancing Translational Sciences (NCATS), 2021).
